Test results as given in PMC9911399, “Two distinct binding modes provide the RNA-binding protein RbFox with extraordinary sequence specificity”.
Changes are numbered by the printed parent chain; changes in the protein carry UniProt numbers. The list shows a part of the results.

T1: RBFOX1 RRM RbFoxmut (Fox-RRM*) (Homo sapiens, UniProt Q9NWB1 109-208, R118D;E147R;N151S;E152T)
T1 sequence: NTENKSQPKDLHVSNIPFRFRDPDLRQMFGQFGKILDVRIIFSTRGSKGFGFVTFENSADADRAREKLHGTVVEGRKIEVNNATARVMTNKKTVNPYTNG

B1: UUCACGU (DNA:RNA)
RNA: GGGAGACCGGAAUUCAGAUUGUCCUUCACGUUUAAAUCCCGUCGUAGCCACCA
DNA 1: CAATCTGAATTCCGGTCTCCC
DNA 2: TGGTGGCTACGACGGGATT
B2: GGGCAAC (DNA:RNA)
RNA: GGGAGACCGGAAUUCAGAUUGUCCGGGCAACUUAAAUCCCGUCGUAGCCACCA
DNA 1: CAATCTGAATTCCGGTCTCCC
DNA 2: TGGTGGCTACGACGGGATT
B3: CGCAAAC (DNA:RNA)
RNA: B2 RNA with G25C, G27C, C28A
DNA 1: CAATCTGAATTCCGGTCTCCC
DNA 2: TGGTGGCTACGACGGGATT
B4: GUCUUAG (DNA:RNA)
RNA: B2 RNA with G26U, G27C, C28U, A29U, C31G
DNA 1: CAATCTGAATTCCGGTCTCCC
DNA 2: TGGTGGCTACGACGGGATT
B5: UAAAAUG (DNA:RNA)
RNA: B1 RNA with U26A, C27A, C29A, G30U, U31G
DNA 1: CAATCTGAATTCCGGTCTCCC
DNA 2: TGGTGGCTACGACGGGATT
B6: UGAUCAU (DNA:RNA)
RNA: B1 RNA with U26G, C27A, A28U, G30A
DNA 1: CAATCTGAATTCCGGTCTCCC
DNA 2: TGGTGGCTACGACGGGATT
B7: AGAAGUA (DNA:RNA)
RNA: B2 RNA with G25A, G27A, C28A, A29G, A30U, C31A
DNA 1: CAATCTGAATTCCGGTCTCCC
DNA 2: TGGTGGCTACGACGGGATT
B8: UCAGCUA (DNA:RNA)
RNA: B1 RNA with U26C, C27A, A28G, G30U, U31A
DNA 1: CAATCTGAATTCCGGTCTCCC
DNA 2: TGGTGGCTACGACGGGATT
B9: UUCAAGC (DNA:RNA)
RNA: B1 RNA with C29A, U31C
DNA 1: CAATCTGAATTCCGGTCTCCC
DNA 2: TGGTGGCTACGACGGGATT
B10: GCGGGCC (DNA:RNA)
RNA: B2 RNA with G26C, C28G, A29G, A30C
DNA 1: CAATCTGAATTCCGGTCTCCC
DNA 2: TGGTGGCTACGACGGGATT
B11: UAUUCUG (DNA:RNA)
RNA: B1 RNA with U26A, C27U, A28U, G30U, U31G
DNA 1: CAATCTGAATTCCGGTCTCCC
DNA 2: TGGTGGCTACGACGGGATT
B12: AAGAACA (DNA:RNA)
RNA: B2 RNA with G25A, G26A, C28A, A30C, C31A
DNA 1: CAATCTGAATTCCGGTCTCCC
DNA 2: TGGTGGCTACGACGGGATT
B13: GUGACUA (DNA:RNA)
RNA: B1 RNA with U25G, C27G, G30U, U31A
DNA 1: CAATCTGAATTCCGGTCTCCC
DNA 2: TGGTGGCTACGACGGGATT
B14: CCUUCGA (DNA:RNA)
RNA: B1 RNA with U25C, U26C, C27U, A28U, U31A
DNA 1: CAATCTGAATTCCGGTCTCCC
DNA 2: TGGTGGCTACGACGGGATT
B15: CAGAUGA (DNA:RNA)
RNA: B1 RNA with U25C, U26A, C27G, C29U, U31A
DNA 1: CAATCTGAATTCCGGTCTCCC
DNA 2: TGGTGGCTACGACGGGATT
B16: AUACUUU (DNA:RNA)
RNA: B1 RNA with U25A, C27A, A28C, C29U, G30U
DNA 1: CAATCTGAATTCCGGTCTCCC
DNA 2: TGGTGGCTACGACGGGATT
B17: GACUAAC (DNA:RNA)
RNA: B2 RNA with G26A, G27C, C28U
DNA 1: CAATCTGAATTCCGGTCTCCC
DNA 2: TGGTGGCTACGACGGGATT
B18: GCUGUAG (DNA:RNA)
RNA: B2 RNA with G26C, G27U, C28G, A29U, C31G
DNA 1: CAATCTGAATTCCGGTCTCCC
DNA 2: TGGTGGCTACGACGGGATT
B19: GAGCUUA (DNA:RNA)
RNA: B2 RNA with G26A, A29U, A30U, C31A
DNA 1: CAATCTGAATTCCGGTCTCCC
DNA 2: TGGTGGCTACGACGGGATT
B20: GCAUGCA (DNA:RNA)
RNA: B2 RNA with G26C, G27A, C28U, A29G, A30C, C31A
DNA 1: CAATCTGAATTCCGGTCTCCC
DNA 2: TGGTGGCTACGACGGGATT
B21: CCAGUUG (DNA:RNA)
RNA: GGGAGACCGGAAUUCAGAUUGUCCCCAGUUGUUAAAUCCCGUCGUAGCCACCA
DNA 1: CAATCTGAATTCCGGTCTCCC
DNA 2: TGGTGGCTACGACGGGATT
B22: AUUCACG (DNA:RNA)
RNA: B2 RNA with G25A, G26U, G27U, A30C, C31G
DNA 1: CAATCTGAATTCCGGTCTCCC
DNA 2: TGGTGGCTACGACGGGATT
B23: GGUCGCC (DNA:RNA)
RNA: B2 RNA with G27U, A29G, A30C
DNA 1: CAATCTGAATTCCGGTCTCCC
DNA 2: TGGTGGCTACGACGGGATT
B24: AUCCAGU (DNA:RNA)
RNA: B1 RNA with U25A, A28C, C29A
DNA 1: CAATCTGAATTCCGGTCTCCC
DNA 2: TGGTGGCTACGACGGGATT
B25: AGUGGAA (DNA:RNA)
RNA: B2 RNA with G25A, G27U, C28G, A29G, C31A
DNA 1: CAATCTGAATTCCGGTCTCCC
DNA 2: TGGTGGCTACGACGGGATT
B26: UCAUGCG (DNA:RNA)
RNA: B21 RNA with C25U, G28U, U29G, U30C
DNA 1: CAATCTGAATTCCGGTCTCCC
DNA 2: TGGTGGCTACGACGGGATT
B27: CAGGGGA (DNA:RNA)
RNA: B21 RNA with C26A, A27G, U29G, U30G, G31A
DNA 1: CAATCTGAATTCCGGTCTCCC
DNA 2: TGGTGGCTACGACGGGATT
B28: GAAUCAG (DNA:RNA)
RNA: B21 RNA with C25G, C26A, G28U, U29C, U30A
DNA 1: CAATCTGAATTCCGGTCTCCC
DNA 2: TGGTGGCTACGACGGGATT
B29: ACUACGC (DNA:RNA)
RNA: B1 RNA with U25A, U26C, C27U, U31C
DNA 1: CAATCTGAATTCCGGTCTCCC
DNA 2: TGGTGGCTACGACGGGATT
B30: UGAAACC (DNA:RNA)
RNA: B2 RNA with G25U, G27A, C28A, A30C
DNA 1: CAATCTGAATTCCGGTCTCCC
DNA 2: TGGTGGCTACGACGGGATT
B31: CUAAGAG (DNA:RNA)
RNA: B21 RNA with C26U, G28A, U29G, U30A
DNA 1: CAATCTGAATTCCGGTCTCCC
DNA 2: TGGTGGCTACGACGGGATT

Target: T1, RBFOX1 RRM RbFoxmut (Fox-RRM*)
Experiment: EMSA; HiTS-Eq, 1 nM pool, 10 min; buffer printed only for the single-RNA assays: 10 mM Tris pH 7.5, 150 mM NaCl, 3.4 mM EDTA, 0.001% NP-40, 30 C
Details: tags: His6 N-terminal (pET28a); label: 5' 32P
Method in brief: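 Purified RbFox RRM, wild type or mutant, was incubated for 10 min in 50 µL with 1 nM of a 5′-radiolabelled RNA pool carrying 7 randomized nucleotides, whose flanks were annealed to DNA oligonucleotides, over a series of increasing protein concentrations. Unbound RNA was resolved on 8% native PAGE, cut out, reverse-transcribed, barcoded by PCR and sequenced on an Illumina HiSeq 2500. Relative association constants were derived from changes in read counts for each RNA species versus the control reaction and normalised to the cognate motif.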

Binder	binding signal
B1	0.0938 KA relative to UGCAUGU
B2	0.063 KA relative to UGCAUGU
B3	0.0555 KA relative to UGCAUGU
B4	0.149 KA relative to UGCAUGU
B5	0.0953 KA relative to UGCAUGU
B6	0.068 KA relative to UGCAUGU
B7	0.156 KA relative to UGCAUGU
B8	0.119 KA relative to UGCAUGU
B9	0.0679 KA relative to UGCAUGU
B10	0.207 KA relative to UGCAUGU
B11	0.0789 KA relative to UGCAUGU
B12	0.0811 KA relative to UGCAUGU
B13	0.119 KA relative to UGCAUGU
B14	0.0928 KA relative to UGCAUGU
B15	0.0698 KA relative to UGCAUGU
B16	0.0911 KA relative to UGCAUGU

Binder	binding signal
B17	0.0655 KA relative to UGCAUGU
B18	0.174 KA relative to UGCAUGU
B19	0.103 KA relative to UGCAUGU
B20	0.828 KA relative to UGCAUGU
B21	0.116 KA relative to UGCAUGU
B22	0.14 KA relative to UGCAUGU
B23	0.0347 KA relative to UGCAUGU
B24	0.091 KA relative to UGCAUGU
B25	0.115 KA relative to UGCAUGU
B26	0.132 KA relative to UGCAUGU
B27	0.0912 KA relative to UGCAUGU
B28	0.389 KA relative to UGCAUGU
B29	0.108 KA relative to UGCAUGU
B30	0.0546 KA relative to UGCAUGU
B31	0.104 KA relative to UGCAUGU
